# Reference: the supplement of paper PMC8728848
# The other results are listed elsewhere or left out.
# How the values were obtained:
# Assay in all cases: glycan array binding signal (z-score within array); higher = stronger binding
# Conditions in all cases: glycan notation: IUPAC condensed, linker removed
# Neu5Ac(a2-8)Neu5Ac = target: Neu5Ac(a2-8)Neu5Ac
# In short: (§1)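 From the Consortium for Functional Glycomics database, 3228 arrays were curated, keeping only those whose protein sequence was available. Binding is given as a within-array Z-score averaged across arrays sharing a protein sequence and across linkers. Negative Z-scores can be read as non-binding.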
# [1] = target: Neu5Ac(a2-8)Neu5Ac(a2-3)Gal(b1-3)GalNAc(b1-4)[Neu5Ac(a2-3)]Gal(b1-4)Glc
# In short: as §1
# [2] = target: Neu5Ac(a2-8)Neu5Ac(a2-3)Gal(b1-3)GalNAc(b1-4)[Neu5Ac(a2-8)Neu5Ac(a2-3)]Gal(b1-4)Glc
# In short: as §1
# [3] = target: Neu5Ac(a2-8)Neu5Ac(a2-3)Gal(b1-4)Glc
# In short: as §1
# [4] = target: Neu5Ac(a2-8)Neu5Ac(a2-3)Gal(b1-4)GlcNAc
# In short: as §1
# [5] = target: Neu5Ac(a2-8)Neu5Ac(a2-3)[Gal(b1-3)GalNAc(b1-4)]Gal(b1-4)Glc
# In short: as §1
# [6] = target: Neu5Ac(a2-8)Neu5Ac(a2-3)[GalNAc(b1-4)]Gal(b1-4)Glc
# In short: as §1
# [7] = target: Neu5Ac(a2-8)Neu5Ac(a2-8)Neu5Ac
# In short: as §1
# [8] = target: Neu5Ac(a2-8)Neu5Ac(a2-8)Neu5Ac(a2-3)Gal(b1-4)Glc
# In short: as §1
# [9] = target: Neu5Ac(a2-8)Neu5Ac(a2-8)Neu5Ac(a2-3)[Gal(b1-3)GalNAc(b1-4)]Gal(b1-4)Glc
# In short: as §1
# [10] = target: Neu5Ac(a2-8)Neu5Ac(a2-8)Neu5Ac(a2-3)[GalNAc(b1-4)]Gal(b1-4)Glc
# In short: as §1
# [11] = target: Neu5Ac(a2-8)Neu5Ac(a2-8)Neu5Ac(a2-8)Neu5Ac(a2-3)[GalNAc(b1-4)]Gal(b1-4)Glc
# In short: as §1
# [12] = target: Neu5Ac(a2-8)Neu5Gc(a2-3)Gal(b1-4)GlcNAc
# In short: as §1
# Neu5Ac(b1-6)GalNAc = target: Neu5Ac(b1-6)GalNAc
# In short: as §1
# [13] = target: Neu5Ac(b2-6)Gal(b1-4)GlcNAc
# In short: as §1
# Neu5Ac(b2-6)GalNAc = target: Neu5Ac(b2-6)GalNAc
# In short: as §1
# [14] = target: Neu5Ac9Ac(a2-3)Gal(b1-3)GlcNAc
# In short: as §1
# [15] = target: Neu5Ac9Ac(a2-3)Gal(b1-4)GlcNAc
# In short: as §1
# [16] = target: Neu5Ac9Ac(a2-6)Gal(b1-4)GlcNAc
# In short: as §1
# [17] = target: Neu5Gc(a2-3)Gal(b1-3)GlcNAc
# In short: as §1
# [18] = target: Neu5Gc(a2-3)Gal(b1-3)[Fuc(a1-4)]GlcNAc
# In short: as §1
# Neu5Gc(a2-3)Gal(b1-4)Glc = target: Neu5Gc(a2-3)Gal(b1-4)Glc
# In short: as §1
# [19] = target: Neu5Gc(a2-3)Gal(b1-4)GlcNAc
# In short: as §1
# [20] = target: Neu5Gc(a2-3)Gal(b1-4)GlcNAc(b1-3)Gal(b1-4)GlcNAc(b1-2)Man(a1-3)[Neu5Gc(a2-3)Gal(b1-4)GlcNAc(b1-3)Gal(b1-4)GlcNAc(b1-2)Man(a1-6)]Man(b1-4)GlcNAc(b1-4)GlcNAc
# In short: as §1
# [21] = target: Neu5Gc(a2-3)Gal(b1-4)[Fuc(a1-3)]GlcNAc
# In short: as §1
# [22] = target: Neu5Gc(a2-3)Gal(b1-4)[Fuc(a1-4)]GlcNAc
# In short: as §1
# [23] = target: Neu5Gc(a2-6)Gal(b1-4)GlcNAc
# In short: as §1
# Neu5Gc(a2-6)GalNAc = target: Neu5Gc(a2-6)GalNAc
# In short: as §1
# [24] = target: Neu5Gc(a2-8)Neu5Ac(a2-3)Gal(b1-4)GlcNAc
# In short: as §1
# [25] = target: Neu5Gc(a2-8)Neu5Gc(a2-3)Gal(b1-4)GlcNAc
# In short: as §1
# [26] = target: Neu5Gc(a2-8)Neu5Gc(a2-3)Gal(b1-4)GlcNAc(b1-3)Gal(b1-4)GlcNAc
# In short: as §1
# [27] = target: Neu5Gc(a2-8)Neu5Gc(a2-6)Gal(b1-4)GlcNAc
# In short: as §1
# [28] = target: Neu5Gc(b2-6)Gal(b1-4)GlcNAc
# In short: as §1
binder,measurement,setting,value
"UEA-I (Ulex europaeus), P22972 (protein) SDDLSFKFKNFSQNGKDLSFQGDASVIETGVLQLNKVGNNLPDETGGIARYIAPIHIWNCNTGEVASFITSFSFFMETSANPKAATDGLTFFLAPPDSPLRRAGGYFGLFEDTKDNDSSYQTVAVEFDTIGSPVNFDDPGFPHIGIDVNRVKSINAERWNKRYGLNNVANVEIIYEASSKTLTASLTYPSDQTSISVTSIVDLKEILPEWVSVGFSGGTYIGRQATHEVLNWYFTSNLINTNS",glycan array binding signal (z-score),Neu5Ac(a2-8)Neu5Ac,-0.194
same,glycan array binding signal (z-score),[1],-0.298
same,glycan array binding signal (z-score),[2],-0.246
same,glycan array binding signal (z-score),[3],-0.244
same,glycan array binding signal (z-score),[4],-0.243
same,glycan array binding signal (z-score),[5],-0.233
same,glycan array binding signal (z-score),[6],-0.259
same,glycan array binding signal (z-score),[7],-0.232
same,glycan array binding signal (z-score),[8],-0.19
same,glycan array binding signal (z-score),[9],-0.016
same,glycan array binding signal (z-score),[10],-0.148
same,glycan array binding signal (z-score),[11],-0.206
same,glycan array binding signal (z-score),[12],-0.215
same,glycan array binding signal (z-score),Neu5Ac(b1-6)GalNAc,-0.242
same,glycan array binding signal (z-score),[13],-0.23
same,glycan array binding signal (z-score),Neu5Ac(b2-6)GalNAc,-0.195
same,glycan array binding signal (z-score),[14],-0.195
same,glycan array binding signal (z-score),[15],-0.155
same,glycan array binding signal (z-score),[16],-0.244
same,glycan array binding signal (z-score),[17],-0.202
same,glycan array binding signal (z-score),[18],-0.169
same,glycan array binding signal (z-score),Neu5Gc(a2-3)Gal(b1-4)Glc,-0.125
same,glycan array binding signal (z-score),[19],-0.186
same,glycan array binding signal (z-score),[20],-0.16
same,glycan array binding signal (z-score),[21],-0.176
same,glycan array binding signal (z-score),[22],-0.137
same,glycan array binding signal (z-score),[23],-0.164
same,glycan array binding signal (z-score),Neu5Gc(a2-6)GalNAc,-0.073
same,glycan array binding signal (z-score),[24],-0.249
same,glycan array binding signal (z-score),[25],-0.238
same,glycan array binding signal (z-score),[26],-0.117
same,glycan array binding signal (z-score),[27],-0.206
same,glycan array binding signal (z-score),[28],-0.1
